Common to all, as to test: split reporter; Rluc-PCA: proteins with C-terminal hRluc[F1]-HA and hRluc[F2]-FLAG co-expressed with p19 in N. benthamiana leaves for 72 h (Agrobacterium OD600 0.2 each, p19 0.05); pooled leaf discs macerated in 0.5 M NaCl, 0.1 M potassium phosphate pH 7.4, 1 mM EDTA, 0.02% BSA, protease inhibitors; 10 uM coelenterazine-h, luminescence 30 s; compared with p19 alone
Assay [1] deals with T1, XXT2 fused to hRluc fragment [F1] or [F2] (Arabidopsis thaliana) (UniProt O22775).
T1 sequence: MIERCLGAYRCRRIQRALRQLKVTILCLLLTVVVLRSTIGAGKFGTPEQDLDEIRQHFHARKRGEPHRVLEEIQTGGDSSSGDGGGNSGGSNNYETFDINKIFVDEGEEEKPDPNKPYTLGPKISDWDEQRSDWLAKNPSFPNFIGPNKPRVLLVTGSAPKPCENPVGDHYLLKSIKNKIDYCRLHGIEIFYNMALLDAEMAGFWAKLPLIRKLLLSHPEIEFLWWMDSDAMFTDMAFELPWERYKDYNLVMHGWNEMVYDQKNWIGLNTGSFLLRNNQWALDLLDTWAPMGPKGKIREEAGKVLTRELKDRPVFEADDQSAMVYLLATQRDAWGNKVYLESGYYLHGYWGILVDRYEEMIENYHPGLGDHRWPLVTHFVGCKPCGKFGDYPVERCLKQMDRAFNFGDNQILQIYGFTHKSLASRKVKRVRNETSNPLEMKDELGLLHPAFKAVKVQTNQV

Assay [2] deals with T2, FUCO…1 (FUT1) fused to hRluc fragment [F1] or [F2] (Arabidopsis thaliana) (UniProt Q9SWH5).
T2 sequence: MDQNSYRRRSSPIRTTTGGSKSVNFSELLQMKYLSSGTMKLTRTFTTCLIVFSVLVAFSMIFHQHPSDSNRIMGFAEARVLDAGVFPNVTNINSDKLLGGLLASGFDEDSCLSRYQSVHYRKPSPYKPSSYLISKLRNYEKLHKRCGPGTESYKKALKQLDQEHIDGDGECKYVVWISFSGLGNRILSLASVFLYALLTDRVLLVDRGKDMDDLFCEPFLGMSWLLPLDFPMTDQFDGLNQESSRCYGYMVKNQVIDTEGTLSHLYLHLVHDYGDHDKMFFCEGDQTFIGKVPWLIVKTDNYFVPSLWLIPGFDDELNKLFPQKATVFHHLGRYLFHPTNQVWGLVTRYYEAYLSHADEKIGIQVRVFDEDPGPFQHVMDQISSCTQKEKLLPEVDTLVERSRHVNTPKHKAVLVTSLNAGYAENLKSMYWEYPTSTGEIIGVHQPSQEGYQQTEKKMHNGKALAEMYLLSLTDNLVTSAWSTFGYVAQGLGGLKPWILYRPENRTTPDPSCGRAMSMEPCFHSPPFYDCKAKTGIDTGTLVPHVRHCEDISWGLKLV

For assay [3], the target named is T3, XXT5 fused to hRluc fragment [F1] or [F2] (Arabidopsis thaliana) (UniProt Q9CA75).
T3 sequence: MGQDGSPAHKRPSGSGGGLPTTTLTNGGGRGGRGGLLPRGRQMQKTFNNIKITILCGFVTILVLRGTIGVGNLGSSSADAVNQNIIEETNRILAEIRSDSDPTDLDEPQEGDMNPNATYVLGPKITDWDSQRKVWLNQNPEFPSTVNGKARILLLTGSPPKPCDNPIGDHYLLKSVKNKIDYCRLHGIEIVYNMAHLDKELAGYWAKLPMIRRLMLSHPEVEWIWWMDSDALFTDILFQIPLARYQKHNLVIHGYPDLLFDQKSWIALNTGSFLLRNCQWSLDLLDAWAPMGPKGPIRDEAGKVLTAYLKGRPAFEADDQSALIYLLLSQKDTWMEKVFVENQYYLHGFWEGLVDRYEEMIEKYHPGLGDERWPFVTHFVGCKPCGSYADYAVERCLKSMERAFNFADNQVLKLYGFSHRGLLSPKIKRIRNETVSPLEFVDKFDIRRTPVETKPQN

For assay [4], the target named is XYLO…1 (XXT1) fused to hRluc fragment [F1] or [F2] (Arabidopsis thaliana) (UniProt Q9LZJ3).

The values that follow come from article PMC4265154, “A reversible Renilla luciferase protein complementation assay for rapid identification of protein–protein interactions reveals the existence of an interaction network involved in xyloglucan biosynthesis in the plant Golgi apparatus” (Journal of Experimental Botany, 2014).

These are yes or no findings as the source states them, for the method shown. Binding seen in cells or lysates may run through a third protein. Some binding calls cover weakened binding; strength is not graded here. Tags and fused reporters may be left off the sequences shown.

B1: XYLO…1 (XXT1) fused to hRluc fragment [F1] or [F2] (protein, UniProt Q9LZJ3 1-460)
chain: MIEKCIGAHRFRRLQRFMRQGKVTILCLVLTVIVLRGTIGAGKFGTPEKDIEEIREHFFYTRKRGEPHRVLVEVSSKTTSSEDGGNGGNSYETFDINKLFVDEGDEEKSRDRTNKPYSLGPKISDWDEQRRDWLKQNPSFPNFVAPNKPRVLLVTGSAPKPCENPVGDHYLLKSIKNKIDYCRIHGIEIFYNMALLDAEMAGFWAKLPLIRKLLLSHPEIEFLWWMDSDAMFTDMVFELPWERYKDYNLVMHGWNEMVYDQKNWIGLNTGSFLLRNSQWSLDLLDAWAPMGPKGKIREEAGKVLTRELKDRPAFEADDQSAMVYLLATEREKWGGKVYLESGYYLHGYWGILVDRYEEMIENHKPGFGDHRWPLVTHFVGCKPCGKFGDYPVERCLRQMDRAFNFGDNQILQMYGFTHKSLGSRRVKPTRNQTDRPLDAKDEFGLLHPPFKAAKLSTTTT
As for B1, the binding entry in assay [1] is “binds”; in assay [2] it was “no binding”; in assay [3], “binds”; in assay [4], “no binding”.
